# Reference: the supplement of paper PMC11876631
# ± gives the standard deviation of the averaged measurements. Laboratory Escherichia coli strains with one amino-acid change in an essential protein, pooled on minimal glucose agar with carbenicillin or gentamicin at twice the control MIC (plus kanamycin and chloramphenicol for the plasmids), 48 h. Fold change of barcode share against drug-free plates; higher = less susceptible. Active = above 20 in both replicates (the paper's putatively resistant). '<' = one read or none on drug, '>' = one read or none on a drug-free plate. Shares are relative, so most strains fall below 1 when a few take over. Listed are strains with at least 15 reads on both drug-free plates, and hits; most hits rest on fewer reference reads. Replicate rank correlation about 0.5. Edits are read from barcodes.
# B1: pyrD L227Q (protein)
# chain: MYYPFVRKALFQLDPERAHEFTFQQLRRITGTPFEALVRQKVPAKPVNCMGLTFKNPLGLAAGLDKDGECIDALGAMGFGSIEIGTVTPRPQPGNDKPRLFRLVDAEGLINRMGFNNLGVDNLVENVKKAHYDGVLGINIGKNKDTPVEQGKDDYLICMEKIYAYAGYIAINISSPNTPGLRTLQYGEALDDLLTAIKNKQNDLQAMHHKYVPIAVKIAPDLSEEEQIQVADSLVRHNIDGVIATNTTLDRSLVQGMKNCDQTGGLSGRPLQLKSTEIIRRLSLELNGRLPIIGVGGIDSVIAAREKIAAGASLVQIYSGFIFKGPPLIKEIVTHI
# B2: pyrE V17Q (protein)
# chain: MKPYQRQFIEFALSKQQLKFGEFTLKSGRKSPYFFNAGLFNTGRDLALLGRFYAEALVDSGIEFDLLFGPAYKGIPIATTTAVALAEHHDLDLPYCFNRKEAKDHGEGGNLVGSALQGRVMLVDDVITAGTAIRESMEIIQANGATLAGVLISLDRQERGRGEISAIQEVERDYNCKVISIITLKDLIAYLEEKPEMAEHLAAVKAYREEFGV
# B3: pyrE L49A (protein)
# chain: MKPYQRQFIEFALSKQVLKFGEFTLKSGRKSPYFFNAGLFNTGRDLALAGRFYAEALVDSGIEFDLLFGPAYKGIPIATTTAVALAEHHDLDLPYCFNRKEAKDHGEGGNLVGSALQGRVMLVDDVITAGTAIRESMEIIQANGATLAGVLISLDRQERGRGEISAIQEVERDYNCKVISIITLKDLIAYLEEKPEMAEHLAAVKAYREEFGV
# B4: pyrE L49Q (protein)
# chain: MKPYQRQFIEFALSKQVLKFGEFTLKSGRKSPYFFNAGLFNTGRDLALQGRFYAEALVDSGIEFDLLFGPAYKGIPIATTTAVALAEHHDLDLPYCFNRKEAKDHGEGGNLVGSALQGRVMLVDDVITAGTAIRESMEIIQANGATLAGVLISLDRQERGRGEISAIQEVERDYNCKVISIITLKDLIAYLEEKPEMAEHLAAVKAYREEFGV
# B5: pyrE V123D (protein)
# chain: MKPYQRQFIEFALSKQVLKFGEFTLKSGRKSPYFFNAGLFNTGRDLALLGRFYAEALVDSGIEFDLLFGPAYKGIPIATTTAVALAEHHDLDLPYCFNRKEAKDHGEGGNLVGSALQGRVMLDDDVITAGTAIRESMEIIQANGATLAGVLISLDRQERGRGEISAIQEVERDYNCKVISIITLKDLIAYLEEKPEMAEHLAAVKAYREEFGV
# B6: pyrE I181A (protein)
# chain: MKPYQRQFIEFALSKQVLKFGEFTLKSGRKSPYFFNAGLFNTGRDLALLGRFYAEALVDSGIEFDLLFGPAYKGIPIATTTAVALAEHHDLDLPYCFNRKEAKDHGEGGNLVGSALQGRVMLVDDVITAGTAIRESMEIIQANGATLAGVLISLDRQERGRGEISAIQEVERDYNCKVISAITLKDLIAYLEEKPEMAEHLAAVKAYREEFGV
# B7: pyrE L187A (protein)
# chain: MKPYQRQFIEFALSKQVLKFGEFTLKSGRKSPYFFNAGLFNTGRDLALLGRFYAEALVDSGIEFDLLFGPAYKGIPIATTTAVALAEHHDLDLPYCFNRKEAKDHGEGGNLVGSALQGRVMLVDDVITAGTAIRESMEIIQANGATLAGVLISLDRQERGRGEISAIQEVERDYNCKVISIITLKDAIAYLEEKPEMAEHLAAVKAYREEFGV
# B8: pyrE L187W (protein)
# chain: MKPYQRQFIEFALSKQVLKFGEFTLKSGRKSPYFFNAGLFNTGRDLALLGRFYAEALVDSGIEFDLLFGPAYKGIPIATTTAVALAEHHDLDLPYCFNRKEAKDHGEGGNLVGSALQGRVMLVDDVITAGTAIRESMEIIQANGATLAGVLISLDRQERGRGEISAIQEVERDYNCKVISIITLKDWIAYLEEKPEMAEHLAAVKAYREEFGV
# B9: pyrE L187Q (protein)
# chain: MKPYQRQFIEFALSKQVLKFGEFTLKSGRKSPYFFNAGLFNTGRDLALLGRFYAEALVDSGIEFDLLFGPAYKGIPIATTTAVALAEHHDLDLPYCFNRKEAKDHGEGGNLVGSALQGRVMLVDDVITAGTAIRESMEIIQANGATLAGVLISLDRQERGRGEISAIQEVERDYNCKVISIITLKDQIAYLEEKPEMAEHLAAVKAYREEFGV
# B10: pyrE F8A (protein)
# chain: MKPYQRQAIEFALSKQVLKFGEFTLKSGRKSPYFFNAGLFNTGRDLALLGRFYAEALVDSGIEFDLLFGPAYKGIPIATTTAVALAEHHDLDLPYCFNRKEAKDHGEGGNLVGSALQGRVMLVDDVITAGTAIRESMEIIQANGATLAGVLISLDRQERGRGEISAIQEVERDYNCKVISIITLKDLIAYLEEKPEMAEHLAAVKAYREEFGV
# B11: pyrE F8W (protein)
# chain: MKPYQRQWIEFALSKQVLKFGEFTLKSGRKSPYFFNAGLFNTGRDLALLGRFYAEALVDSGIEFDLLFGPAYKGIPIATTTAVALAEHHDLDLPYCFNRKEAKDHGEGGNLVGSALQGRVMLVDDVITAGTAIRESMEIIQANGATLAGVLISLDRQERGRGEISAIQEVERDYNCKVISIITLKDLIAYLEEKPEMAEHLAAVKAYREEFGV
# B12: pyrF V18A (protein)
# chain: MTLTASSSSRAVTNSPVAVALDYHNRDDALAFVDKIDPRDCRLKVGKEMFTLFGPQFVRELQQRGFDIFLDLKFHDIPNTAAHAVAAAADLGVWMVNVHASGGARMMTAAREALVPFGKDAPLLIAVTVLTSMEASDLVDLGMTLSPADYAERLAALTQKCGLDGVVCSAQEAVRFKQVFGQEFKLVTPGIRPQGSEAGDQRRIMTPEQALSAGVDYMVIGRPVTQSVDPAQTLKAINASLQRSA
# B13: pyrF V18Q (protein)
# chain: MTLTASSSSRAVTNSPVQVALDYHNRDDALAFVDKIDPRDCRLKVGKEMFTLFGPQFVRELQQRGFDIFLDLKFHDIPNTAAHAVAAAADLGVWMVNVHASGGARMMTAAREALVPFGKDAPLLIAVTVLTSMEASDLVDLGMTLSPADYAERLAALTQKCGLDGVVCSAQEAVRFKQVFGQEFKLVTPGIRPQGSEAGDQRRIMTPEQALSAGVDYMVIGRPVTQSVDPAQTLKAINASLQRSA
# B14: pyrF V19A (protein)
# chain: MTLTASSSSRAVTNSPVVAALDYHNRDDALAFVDKIDPRDCRLKVGKEMFTLFGPQFVRELQQRGFDIFLDLKFHDIPNTAAHAVAAAADLGVWMVNVHASGGARMMTAAREALVPFGKDAPLLIAVTVLTSMEASDLVDLGMTLSPADYAERLAALTQKCGLDGVVCSAQEAVRFKQVFGQEFKLVTPGIRPQGSEAGDQRRIMTPEQALSAGVDYMVIGRPVTQSVDPAQTLKAINASLQRSA
# B15: pyrF V19W (protein)
# chain: MTLTASSSSRAVTNSPVVWALDYHNRDDALAFVDKIDPRDCRLKVGKEMFTLFGPQFVRELQQRGFDIFLDLKFHDIPNTAAHAVAAAADLGVWMVNVHASGGARMMTAAREALVPFGKDAPLLIAVTVLTSMEASDLVDLGMTLSPADYAERLAALTQKCGLDGVVCSAQEAVRFKQVFGQEFKLVTPGIRPQGSEAGDQRRIMTPEQALSAGVDYMVIGRPVTQSVDPAQTLKAINASLQRSA
# B16: pyrF V19Q (protein)
# chain: MTLTASSSSRAVTNSPVVQALDYHNRDDALAFVDKIDPRDCRLKVGKEMFTLFGPQFVRELQQRGFDIFLDLKFHDIPNTAAHAVAAAADLGVWMVNVHASGGARMMTAAREALVPFGKDAPLLIAVTVLTSMEASDLVDLGMTLSPADYAERLAALTQKCGLDGVVCSAQEAVRFKQVFGQEFKLVTPGIRPQGSEAGDQRRIMTPEQALSAGVDYMVIGRPVTQSVDPAQTLKAINASLQRSA
# B17: pyrF M95A (protein)
# chain: MTLTASSSSRAVTNSPVVVALDYHNRDDALAFVDKIDPRDCRLKVGKEMFTLFGPQFVRELQQRGFDIFLDLKFHDIPNTAAHAVAAAADLGVWAVNVHASGGARMMTAAREALVPFGKDAPLLIAVTVLTSMEASDLVDLGMTLSPADYAERLAALTQKCGLDGVVCSAQEAVRFKQVFGQEFKLVTPGIRPQGSEAGDQRRIMTPEQALSAGVDYMVIGRPVTQSVDPAQTLKAINASLQRSA
# B18: pyrF L154A (protein)
# chain: MTLTASSSSRAVTNSPVVVALDYHNRDDALAFVDKIDPRDCRLKVGKEMFTLFGPQFVRELQQRGFDIFLDLKFHDIPNTAAHAVAAAADLGVWMVNVHASGGARMMTAAREALVPFGKDAPLLIAVTVLTSMEASDLVDLGMTLSPADYAERAAALTQKCGLDGVVCSAQEAVRFKQVFGQEFKLVTPGIRPQGSEAGDQRRIMTPEQALSAGVDYMVIGRPVTQSVDPAQTLKAINASLQRSA
# Target: Escherichia coli (laboratory strain)
# Test: barcode share on antibiotic plates over drug-free plates; higher = less susceptible
# Settings: antibiotic: carbenicillin; 2× MIC (3.1 µg/mL)
# Experimental: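 A pool of E. coli strains, each edited to carry one amino-acid change in an essential protein, was grown for 48 h on minimal glucose agar with or without antibiotic; strain barcodes were sequenced; mean of two replicates.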
row,Protein,fold change of barcode share
1,B1,0.336 ± 0.16
2,B2,0.437 ± 0.17
3,B3,0.271 ± 0.045
4,B4,0.149 ± 0.0047
5,B5,0.35 ± 0.41
6,B6,0.418 ± 0.2
7,B7,0.986 ± 0.069
8,B8,> 23.6 [active]
9,B9,0.66 ± 0.11
10,B10,0.21 ± 0.044
11,B11,0.397 ± 0.078
12,B12,0.373 ± 0.053
13,B13,0.865 ± 0.13
14,B14,0.409 ± 0.15
15,B15,0.816 ± 0.23
16,B16,0.54 ± 0.15
17,B17,1.37 ± 0.48
18,B18,1.01 ± 0.24

# Same assay, conditions: antibiotic: gentamicin; 2× MIC (MIC 0.45 µg/mL)
row,Protein,fold change of barcode share
1,B1,< 0.015
2,B2,< 0.0147
3,B3,0.163 ± 0.23
4,B4,0.0289 ± 0.035
5,B6,< 0.013
6,B7,0.0205 ± 0.02
7,B9,0.0241 ± 0.01
8,B10,< 0.00983
9,B11,< 0.0118
10,B12,< 0.0107
11,B13,0.0175 ± 0.012
12,B14,< 0.0146
13,B16,0.0194 ± 0.013
14,B17,0.0192 ± 0.0032
15,B18,0.0119 ± 0.00094
